{"source": "PubChem BioAssay AID686971", "about": "(National Center for Advancing Translational Sciences (NCATS), 2013)", "note": "Hit rate of the full screen: of about 360,000 compounds, about 7,500 (2.1%) were called active. The inconclusive results got no clear call from the source; some entries with a clear call stand among them for comparison. Calls come from the whole dose curve; as a rule, active = well fitted cell-killing curve with a large enough effect; inconclusive = small, poorly fitted or top-dose-only effect, or effect the other way, or another doubt; inactive = no such curve, though single readings can be large or run the other way. Potencies of inconclusive entries are left out as doubtful fits. Potency is the fitted concentration of half-maximal effect; tags give direction and shape of the fitted curve."}
{"experiment": "qHTS for induction of synthetic lethality in tumor cells producing 2HG: qHTS for the HT-1080-IDH1KD cell line;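 for activity, negative = toxicity: 0% = DMSO wells and -100% = cell-free medium wells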", "settings": "HT-1080 IDH1 knockdown viability, ATP luminescence, 48 h; activity, negative = toxicity: at 46.1 µM (top of the series) unless noted", "procedure,_shortened": "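In this qHTS, HT-1080 cells depleted of IDH1 are exposed for 48 h at 37 °C to compound titrations. Toxicity is scored from CellTiter-Glo luminescence, with DMSO as full viability and medium alone as none.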"}
{"smiles": "O=C(Nc1nc2ccc(F)cc2s1)C1CCN(S(=O)(=O)c2cc([N+](=O)[O-])ccc2Cl)CC1", "Potency": "inconclusive [cytotoxic, partial curve]"}
{"smiles": "c1ccc(-n2cnc3cc(NCc4ccco4)ccc32)cc1", "Potency": "inconclusive [cytotoxic, single point]"}
{"smiles": "CCn1c(SCc2ccc(C(=O)Nc3cc(C)cc(C)c3)cc2)nnc1-c1ccncc1", "activity, negative = toxicity": "inactive: -24.2%"}
{"smiles": "CC(C)N1CCc2c(sc(NC(=O)c3ccc(S(=O)(=O)N4CCOCC4)cc3)c2C(N)=O)C1", "activity, negative = toxicity": "inactive: 2.06%"}
{"smiles": "COc1ccc(C(=O)N2CCc3ccccc32)cc1S(=O)(=O)N1CCOCC1", "activity, negative = toxicity": "inactive: -7.9%"}
{"smiles": "Cc1cc(=O)n2nc(N3CCC(C(=O)Nc4c(F)c(F)c(F)c(F)c4F)CC3)sc2n1", "Potency": "inconclusive [rising, single point]"}
{"smiles": "O=C(CN1CCc2ccccc2C1)NC1CCCC1", "activity, negative = toxicity": "inactive: 7.27%"}
{"smiles": "O=C(NCCNC(=O)c1ccccn1)c1ccc(Cl)cc1", "activity, negative = toxicity": "inactive: 1.94%"}
{"smiles": "Cc1ccc(NC(=O)Nc2cccnc2)cc1NC(=O)Nc1cccnc1", "Potency": "inconclusive [cytotoxic, single point]"}
{"smiles": "Cc1ccc(NCC(=O)N/N=C/c2ccc(-c3cccc(C(F)(F)F)c3)o2)cc1", "activity, negative = toxicity": "inactive: -18.6%"}
{"smiles": "Cc1ccc(-c2c[n+](Cc3cccc(Cl)c3)c3n2CCC3)cc1", "Potency": "inconclusive [cytotoxic, partial curve]"}
{"smiles": "CC(C)N(C(=O)[C@H]1C[C@H](CC(=O)NC(C)(C)C)C(=O)N2CCc3c([nH]c4ccc(Cl)cc34)[C@]12C)C(C)C", "Potency": "inconclusive [cytotoxic, single point]"}
{"smiles": "Cc1ccc(N(Cc2ccccc2)C(=O)c2ccc(C)c(S(=O)(=O)N3CCOCC3)c2)cc1", "activity, negative = toxicity": "inactive: -23.6%"}
{"smiles": "CCOC(=O)N/N=C/c1ccc(N(CC)CC)cc1O", "Potency": "active: 9.2 µM"}
{"smiles": "NC(=O)CSc1nc2c(c(=O)n1-c1ccccc1)C1(CCCCC1)Cc1ccccc1-2", "Potency": "active: 13 µM"}
{"smiles": "CCC(C)c1ccccc1OCC(=O)NN1C(=O)c2ccccc2C1=O", "note": "(configuration not stated)", "Potency": "inconclusive [cytotoxic, single point]"}
{"smiles": "C(=C\\c1ccccc1)/CN1CCN(C(c2nnnn2C2CCCCC2)C2CC2)CC1", "note": "(configuration not stated)", "Potency": "inconclusive [cytotoxic, single point]"}
{"smiles": "CNC(=O)C(=O)Nc1c(O)c2ccccc2[nH]c1=O", "activity, negative = toxicity": "inactive: 11.6%"}
{"smiles": "CCOC(=O)N1CCC(NS(=O)(=O)c2ccc(C)cc2)CC1", "activity, negative = toxicity": "inactive: 0.0889%"}
{"smiles": "Cc1nn(Cc2ccccc2Cl)c(C)c1NC(=O)c1noc2c1CCCCC2", "Potency": "active: 10 µM"}
{"smiles": "COc1ccc(C(=O)NCC(c2ccccc2)c2ccccc2)cc1S(=O)(=O)N1CCOCC1", "activity, negative = toxicity": "inactive: -2.3%"}
{"smiles": "O=C(CCN1C(=O)/C(=C/c2ccccc2Cl)SC1=S)N1CCCC1", "Potency": "inconclusive [cytotoxic, partial curve]"}
{"smiles": "COC(=O)c1ccc(NC(=O)c2ccccc2-c2ccccc2C(=O)O)cc1", "activity, negative = toxicity": "inactive: 2.99%"}
{"smiles": "Cc1ccc(-c2csc(NC(=O)c3ccc(F)cc3)c2C(=O)O)cc1", "Potency": "inconclusive [cytotoxic, partial curve]"}
{"smiles": "Cn1cnc([N+](=O)[O-])c1S(=O)(=O)Nc1ccccc1", "Potency": "inconclusive [cytotoxic, single point]"}
{"smiles": "N#CCCN(Cc1ccccc1)C(C(=O)NC1CCCCC1)c1cc2ccccc2o1", "note": "(configuration not stated)", "Potency": "inconclusive [cytotoxic, single point]"}
{"smiles": "CC(C)C1C(=O)N(Cc2cn(CCC3OCCO3)nn2)CCS(=O)(=O)N1Cc1ccc(-c2ccc(Cl)cc2)cc1", "note": "(configuration not stated)", "Potency": "inconclusive [cytotoxic, single point]"}
{"smiles": "Cc1ccc(-n2c(CCC(=O)O)ccc2-c2cccs2)cc1", "Potency": "inconclusive [cytotoxic, single point]"}
{"smiles": "CCOC(=O)[C@H]1[C@H]2COc3ccc(C)cc3[C@@H]2N2C(=O)CN(Cc3ccc(Cl)cc3)C(=O)[C@@]12C", "activity, negative = toxicity": "inactive: 4.87%"}
{"smiles": "CC(C)(C)c1ccc(Oc2ncccc2NC(=O)c2cccs2)cc1", "activity, negative = toxicity": "inactive: -1.32%"}
{"smiles": "CN(C)CCCN(C(=O)/C=C/c1cccs1)c1nc2c(F)cccc2s1", "Potency": "inconclusive [cytotoxic, single point]"}
{"smiles": "Cc1ccc([C@H]2C[C@H](n3cc(-c4ccc(F)cc4)nn3)[C@@H](O)CN2C(=O)C2CCCCC2)cc1", "Potency": "inconclusive [cytotoxic, single point]"}
{"smiles": "c1ccc(Cn2c(CNc3nc4ccccc4n3CCN3CCCCC3)nc3ccccc32)cc1", "Potency": "active: 23.1 µM"}
{"smiles": "N#CCc1ccc(NC(=O)/C=C/c2ccc([N+](=O)[O-])o2)cc1", "Potency": "active: 2.91 µM"}
{"smiles": "CS(=O)(=O)c1ccc(CNC(=O)C2(C(F)(F)F)CC(CCCO)CCCO2)cc1", "note": "(configuration not stated)", "Potency": "active: 5.8 µM"}
{"smiles": "CCN(Cc1ccccc1)S(=O)(=O)c1ccc(C(=O)N(CCCN(C)C)c2nc3cc4c(cc3s2)OCCO4)cc1", "Potency": "inconclusive [cytotoxic, single point]"}
{"smiles": "COc1ccc(-c2csc(C(O)c3ccc(OC)cc3)n2)cc1", "note": "(configuration not stated)", "Potency": "inconclusive [cytotoxic, single point]"}
{"smiles": "Cc1ccc(-c2cc(C(=O)NCc3cnn(C)c3C)c3cc(Br)ccc3n2)cc1", "Potency": "inconclusive [cytotoxic, single point]"}
{"smiles": "Cc1ccc(NC(=O)c2cc(C(C)(C)C)nn2Cc2ccccc2)cc1", "Potency": "inconclusive [cytotoxic, partial curve, poor fit]"}
{"smiles": "O=C(NCc1ccccc1F)c1cccc(S(=O)(=O)NCc2ccccc2)c1", "activity, negative = toxicity": "inactive: -10.6%"}
{"smiles": "CC1(C)CC(=Cc2cc(O)ccc2[N+](=O)[O-])C(=O)c2ccccc21", "Potency": "inconclusive [cytotoxic, single point]"}
{"smiles": "NC(=S)N/N=C/c1ccc(C23CC4CC(CC(C4)C2)C3)cc1", "Potency": "inconclusive [cytotoxic, partial curve, poor fit]"}
{"smiles": "CCCCCCCCCCCCCCCC[N+](C)(C)CCN(Cc1ccc(OC)cc1)c1ncccn1", "Potency": "active: 18.4 µM"}
{"smiles": "CC(C)(C)n1nnnc1C(c1cccs1)N(Cc1cccnc1)Cc1ccccc1Cl", "note": "(configuration not stated)", "Potency": "inconclusive [cytotoxic, single point]"}
{"smiles": "CC(=O)CC(c1ccccc1)S(=O)(=O)c1ccc([N+](=O)[O-])cc1", "note": "(configuration not stated)", "activity, negative = toxicity": "inactive: 13.7%"}
{"smiles": "N#CC1=C(N)Oc2cc(O)ccc2C1c1ccccc1", "note": "(configuration not stated)", "Potency": "inconclusive [cytotoxic, partial curve]"}
{"smiles": "Cc1cccc(C(=O)Nc2ccc(C(=O)c3ccncc3)cc2)c1", "activity, negative = toxicity": "inactive: 4.24%"}
{"smiles": "O=C(NCCN1CCCOC1=O)C(=O)NCCN1CCCOC1=O", "activity, negative = toxicity": "inactive: 1.37%"}
{"smiles": "O=C(Cn1cnc2c(cnn2-c2ccccc2)c1=O)Nc1cc(S(=O)(=O)N2CCOCC2)ccc1Cl", "activity, negative = toxicity": "inactive: -5.18%"}
{"smiles": "CC(C)(C)c1nc(N2CCN(C(=O)c3ccco3)CC2)c2nnn(Cc3ccccc3)c2n1", "Potency": "inconclusive [cytotoxic, single point]"}
{"smiles": "O=C(NC1CC1)C1CCN(c2ncnc3c2sc2cccc(F)c23)CC1", "activity, negative = toxicity": "inactive: -1.56%"}
{"smiles": "Cc1cc(C)nc(Nc2n[nH]c(-c3ccccc3N)n2)n1", "Potency": "active: 32.6 µM"}
{"smiles": "Cc1ccccc1NC(=O)c1ccc(CN2CCC(Cc3ccccc3)CC2)cc1", "Potency": "inconclusive [cytotoxic, single point]"}
{"smiles": "O=C(Cc1ccc([N+](=O)[O-])cc1)NCc1ccc2c(c1)OCO2", "activity, negative = toxicity": "inactive: 0.503%"}
{"smiles": "Cc1cc(N=Cc2c(O)ccc3ccccc23)no1", "Potency": "inconclusive [cytotoxic, single point]"}
{"smiles": "Cc1ncc(CCl)c2c1OC(C)(C)OC2", "activity, negative = toxicity": "inactive: -0.0926%"}
{"smiles": "COC(=O)c1ccccc1S(=O)(=O)N1CCC(C(=O)OC(C)C(=O)N(C)Cc2ccccc2)CC1", "note": "(configuration not stated)", "activity, negative = toxicity": "inactive: 3.19%"}
{"smiles": "CC(C)Oc1c(Br)cc(Br)cc1/C=N/NC(N)=S", "Potency": "inconclusive [cytotoxic, single point]"}
{"smiles": "COc1ccc2cnnc(SCC(=O)Nc3ccccc3)c2c1OC", "activity, negative = toxicity": "inactive: -0.054%"}
{"smiles": "Cc1ccc(C(=O)Nc2sc3c(c2C(=O)O)CCCC3)o1", "Potency": "inconclusive [cytotoxic, partial curve]"}
{"smiles": "Cc1nc2c(-c3ccc(Cl)cc3)c(C)[nH]n2c(=O)c1Cc1ccccc1", "Potency": "inconclusive [cytotoxic, full curve]"}
{"smiles": "CCOC(=O)CSC1=C(C#N)C(c2ccc3c(c2)OCO3)CC(=O)N1", "note": "(configuration not stated)", "Potency": "active: 9.2 µM"}
{"smiles": "CCOc1ccc(C(=O)Nc2ccc(S(=O)(=O)N3C[C@@H]4C[C@@H](C3)c3cccc(=O)n3C4)cc2)cc1", "Potency": "active: 23.1 µM"}
{"smiles": "O=C(Nc1nncs1)c1cccc(S(=O)(=O)N2CCc3ccccc32)c1", "Potency": "inconclusive [cytotoxic, single point]"}
{"smiles": "N#C/C(N=Nc1ccccc1O)=N\\Nc1ccccc1O", "Potency": "active: 9.2 µM"}
{"smiles": "Cc1ccc(Cl)cc1NC(=O)C1CCN(S(C)(=O)=O)CC1", "Potency": "inconclusive [rising, single point]"}
{"smiles": "O=C(Nc1cccc(Cl)c1)Nc1ccccc1C(=O)NCc1ccco1", "Potency": "inconclusive [cytotoxic, partial curve]"}
{"smiles": "Cc1nn(C)cc1C(C(=O)NC1CCCCC1)N(C(=O)Cc1cccs1)c1ccc(C(C)C)cc1", "note": "(configuration not stated)", "Potency": "inconclusive [cytotoxic, single point]"}
{"smiles": "Cc1nc2c(-c3ccc(F)cc3)cnn2c(N)c1-c1ccccc1", "Potency": "inconclusive [cytotoxic, single point]"}
{"smiles": "CCN(CC)c1ccc(/C=N/NC(=O)c2ccoc2C)cc1", "Potency": "inconclusive [cytotoxic, single point]"}
{"smiles": "Cc1ccc(F)c(NC(=O)c2ccc(Cn3cc(Cl)cn3)cc2)c1", "Potency": "inconclusive [cytotoxic, single point]"}
{"smiles": "COc1ccc(C(C)=O)cc1CSc1nc2ccccc2c(=O)n1-c1cccc(C)c1", "activity, negative = toxicity": "inactive: -16.1%"}
